The source gives no read counts; variants with many changes may rest on few reads.
B1: LINE1-mini (parent)
chain: GGCAGAGCUCAACACAGCGUGGCAAAGUGGCUGUGGCUAGACUGCC

Variants of: B1
Assay: self-cleavage, relative activity (ratio to wild type); higher = more cleavage; in vitro, sequencing; the parent is a self-cleaving ribozyme

Row | Variant | self-cleavage
1 | C13U G21A G22U | 0.11
2 | C13U G21A G29A C45G | 0.05
3 | C13U G21C A25G | 0.05
4 | C13U G21C C42U | 0.06
5 | C13U G21C G40U | 0.04
6 | C13U G21C U28A | 0.18
7 | C13U G21U A26C C31A C42A | 0.04
8 | C13U G21U C23A C46G | 0.02
9 | C13U G21U U28C C46A | 0.21
10 | C13U G22A C31A | 0.12
11 | C13U G22U A24C | 0.2
12 | C13U G27A C31G | 0.02
13 | C13U G27A G33U U38C C46G | 0.11
14 | C13U G27U C45A | 0.15
15 | C13U G27U G30C A41G | 0.05
16 | C13U G29A C46U | 0.11
17 | C13U G29U G40C | 0.3
18 | C13U G29U G44U | 0.06
19 | C13U G30A G36U C42U | 0.08
20 | C13U G30C U32C A39C | 0.09
21 | C13U G33C C42A | 0.04
22 | C13U G33C U34A | 0.03
23 | C13U G35A C42G C45U | 0.01
24 | C13U G36U U38A C46U | 0.06

Row | Variant | self-cleavage
25 | C13U G40U C42G | 0.06
26 | C13U G40U G44U | 0.03
27 | C13U U20A G36U U38G | 0.02
28 | C13U U20C C45A | 0.14
29 | C13U U20C G21U C23A A25G | 0.04
30 | C13U U20G A26G G35A | 0.16
31 | C13U U20G U34C | 0.02
32 | C13U U28A G30A C31G | 0.05
33 | C13U U28A G30U | 0.02
34 | C13U U28G C46A | 0.1
35 | C13U U32A G33C G40U | 0.04
36 | C13U U32A G40A | 0.03
37 | C13U U32A G40C | 0.05
38 | C13U U34A U43G | 0.65
39 | C13U U34G C45A | 0.03
40 | C13U U34G U43G | 0.07
41 | C13U U38G C42U | 0
42 | A14C A16C A26U G29U | 0.31
43 | A14C A16U G33U U38A | 0.24
44 | A14C A24G G27A G35C | 0.05
45 | A14C A26C U43C G44C | 0
46 | A14C A26G U32C G33A C46G | 0.23
47 | A14C A26U G35C G36A U38C | 0.03
48 | A14C C15A C31U | 0.01

Row | Variant | self-cleavage
49 | A14C C15A G27A U43C | 0.01
50 | A14C C15A U38A | 0.06
51 | A14C C15G G22A | 0.03
52 | A14C C15U A26U G27U C46G | 0
53 | A14C C15U U20A G27A A39G | 0.01
54 | A14C C18A U38A G40C | 0.11
55 | A14C C18G G44A | 0.13
56 | A14C C18U G29C | 0.01
57 | A14C C18U G44U | 0.12
58 | A14C C23A C45A | 0.04
59 | A14C C23U G30A A39G C42G | 0.02
60 | A14C C23U G33A | 0.15
61 | A14C C23U U28A | 0.01
62 | A14C C31U U34C | 0.01
63 | A14C C31U U34G | 0.04
64 | A14C C37U C45U | 0.06
65 | A14C G17A C42G | 0.07
66 | A14C G17A G19A | 0.08
67 | A14C G17A G30C | 0
68 | A14C G17A G33C | 0.02
69 | A14C G17C A26U | 0.12
70 | A14C G17C G21A A24C G30A | 0.22
71 | A14C G17U C18A G27C A41G | 0.19
72 | A14C G19A C46A | 0.02

Row | Variant | self-cleavage
73 | A14C G19A G30A C42A | 0
74 | A14C G19A U32G | 0.07
75 | A14C G19U A25C U28A | 0.05
76 | A14C G19U C23A U32A G40A | 0.03
77 | A14C G19U G36A G40A C46A | 0.01
78 | A14C G19U G44A | 0.03
79 | A14C G19U U34C | 0.04
80 | A14C G21C A24G | 0.05
81 | A14C G21U A25U C31A | 0.1
82 | A14C G21U G22C G33C | 0.02
83 | A14C G22A A39U | 0.04
84 | A14C G22A G30A A41U | 0.16
85 | A14C G22U A24G U32C | 0.06
86 | A14C G27C G36U | 0.01
87 | A14C G27U U34A | 0.01
88 | A14C G29A G30U G35U | 0.11
89 | A14C G29C U38C | 0.01
90 | A14C G29U G30U | 0.05
91 | A14C G30A C46G | 0.03
92 | A14C G30U G35A | 0.07
93 | A14C G33A C37A | 0.07
94 | A14C G35A U38C A41U | 0.1
95 | A14C G35C C37A A41C | 0.02
96 | A14C G35U A41U C45U | 0.05

Row | Variant | self-cleavage
97 | A14C G35U G40U | 0.06
98 | A14C G36A U38C | 0.1
99 | A14C G36U U38A | 0.01
100 | A14C U20A A25U U38G | 0.01
101 | A14C U20A G27C U32G | 0.09
102 | A14C U20A G27C U32G C42U | 0.12
103 | A14C U20C G30A G33U | 0.04
104 | A14C U20C G33U C37G A39U | 0.02
105 | A14C U28G G30C U34G C37U G40C | 0
106 | A14C U32G G33U | 0
107 | A14C U32G G36U G40A | 0.15
108 | A14C U34G A39U | 0.21
109 | A14C U34G U38A | 0.02
110 | A14C U38G C46A | 0.02
111 | A14G A16C C18U A26C G27U G44A | 0
112 | A14G A16C C31A | 0.09
113 | A14G A24C G29U C37U | 0.33
114 | A14G A24U A25G G33U A41U | 0.04
115 | A14G A24U A41U | 0.2
116 | A14G A25C G29A C37G C46U | 0.01
117 | A14G A25C G35A G40U | 0.06
118 | A14G A25C U34C G40C | 0.07
119 | A14G A25U G30A U38G C46U | 0.02
120 | A14G A26G U28A A39C C45G | 0.08

Row | Variant | self-cleavage
121 | A14G A26U A39U C42G C45U | 0
122 | A14G A41U U43C | 0.09
123 | A14G C15A G27C | 0.09
124 | A14G C15A G44C | 0.06
125 | A14G C15G G19U G29U G33A A41G | 0.04
126 | A14G C15U A24C G36U A39G U43A | 0
127 | A14G C15U G29U | 0.2
128 | A14G C15U G30C U32C A39G | 0.04
129 | A14G C18A C23G U32G G44C | 0.01
130 | A14G C18G G33C C46U | 0
131 | A14G C18G U32C | 0.04
132 | A14G C18U G29U A41G G44A C45U | 0.04
133 | A14G C23A A39G G44C C45G | 0.11
134 | A14G C23A U32C U34A G35A | 0.03
135 | A14G C23U A24C | 0.45
136 | A14G C23U U32C A39C | 0.03
137 | A14G C31A A41C | 0.03
138 | A14G C37A C45A | 0.01
139 | A14G G17A U28C G33U G35U | 0.05
140 | A14G G17C A25G C45A | 0.1
141 | A14G G17U G21C G22U G40C C46G | 0.03
142 | A14G G17U G29U C42A | 0.21
143 | A14G G19A C23A G27U G35U G40U C42A | 0.03
144 | A14G G19A U20G | 0.19

Row | Variant | self-cleavage
145 | A14G G19C U32A G44U | 0.06
146 | A14G G21U C31G | 0.06
147 | A14G G21U G35U G44C | 0.03
148 | A14G G22U A24U G29C G33C | 0.08
149 | A14G G22U U38A G44C | 0.1
150 | A14G G27A U34C | 0.33
151 | A14G G27U C42A | 0
152 | A14G G27U C45G | 0.07
153 | A14G G30A A39G U43C | 0.08
154 | A14G G30C U32C | 0.16
155 | A14G G30U A41G | 0.06
156 | A14G G30U U32C U34G C45G | 0.03
157 | A14G G33C G36A C42A | 0.07
158 | A14G G33U C42A G44U | 0.02
159 | A14G G33U G40U | 0
160 | A14G G35A U43C | 0.07
161 | A14G G35C G44C | 0
162 | A14G G35U U38A | 0.1
163 | A14G G36C C46G | 0.12
164 | A14G G40C C42A | 0.24
165 | A14G G40C G44C | 0
166 | A14G G40U C46A | 0.02
167 | A14G U20C G22A C23G G40C A41C | 0.1

Reference: the RNAGym collection of RNA variant scans (doi:10.7554/elife.90254)
